Residue numbers refer to the chain shown, from its start. The list shows a part of the results.
B1: chr12:81257974:81259660:-|three_prime_utr|ENSG00000139220|control|control|control (ssRNA)
RNA: GGGAGUUCUACAGUCCGACGAUCAUGACUUAUUAAAAGCUGAAAAAUGUGAUUUUUGGGGGGAGUCAGAUAUUACAUUUGAUUAGUUUACUACAAAUUGUAAUAAAAUGCUUAAGUCAUUUGAAUAAUAAACAUCAUCUACAUCAACAGAGGAUUGAGCAUCA
B2: chr4:121668310:121668420:-|3pUTR|ENSG00000164111|msi1_unk|FALSE|overlapping (ssRNA)
RNA: GGGAGUUCUACAGUCCGACGAUCCCUUCAGCACCUUUAGCUGCAUUUGUAUGCCAGUGCUUAACACAUUGCCUUAUUCAUACUAGCAUGCUCAUGACCAACACAUACACGUCAUAGAAGAAAAUAGUGGUGCUUCUUUCUGAUCAACAGAGGAUUGAGCAUCA
B3: chr7:94537565:94537673:+|CDS|ENSG00000127995|unk|FALSE|unique (ssRNA)
RNA: GGGAGUUCUACAGUCCGACGAUCGAAGCCUGUAGAUGGGUCCUGUUGUCAACCUCGGCCUCCUGUUACUCUCAUACAGAAGCUAGCUGCUUGUUUUUUCACUUUAUCUAUUAUCGGAUAUUUAAUUUUUUACAUAAUUCAUCGCAACAGAGGAUUGAGCAUCA
B4: chr12:133218311:133218884:-|three_prime_utr|ENSG00000227059|control|control|control (ssRNA)
RNA: GGGAGUUCUACAGUCCGACGAUCAGAGUUCCCCUGGGGGCUCUGCUGAAAAGCAGAGAUUCUUUCCCACUGCCAUGUUUGAAUAGUUUGGUUAGCAAUUCCCUGUAGUAGAGAAAGCAUUUGAGAAAUGUUCGUGAGAUCAGACAACAGAGGAUUGAGCAUCA
B5: chr10:63214216:63214317:-|CDS|ENSG00000171988|unk|FALSE|unique (ssRNA)
RNA: GGGAGUUCUACAGUCCGACGAUCUAAGCUGCAUAAGCGAAGUCCACCUCCAGAGACUAUAAAAUCUAAACUUAAUACUUCAGUAGAUACUCACAAGAUAAAAUCCAGCCCAUCACCUGAAGUUGUUAAACCCAAAAUAACUCACAACAGAGGAUUGAGCAUCA
B6: chr1:202941098:202941199:-|3pUTR|ENSG00000159346|msi1_unk|total|mutant (ssRNA)
RNA: GGGAGUUCUACAGUCCGACGAUCCCUCCCUUACCCCCAUCCUUAACUUUGUAUCCUGGCUUAUAACAGGCCAUCCAUUUUUGCCGCACACUUUUCAAAAACAAUUAUAUACCCUGGUCCCAUCUUUCCCGGGCCUGGAUCUGCCAACAGAGGAUUGAGCAUCA
B7: chr5:138511037:138511180:-|CDS|ENSG00000120705|unk|FALSE|unique (ssRNA)
RNA: GGGAGUUCUACAGUCCGACGAUCCACGGGCAAGUACUGUUUUGGCGUUGAAGAUACACUAAAGGCUUUGGAAAUGGGAGCUGUAGAAAUUCUAAUAGUCUAUGAAAAUCUGGAUAUAAUGAGAUAUGUUCUUCAUUGCCAAGGCAACAGAGGAUUGAGCAUCA
B8: chr10:92030311:92030412:+|3pUTR|ENSG00000095564|unk|FALSE|unique (ssRNA)
RNA: GGGAGUUCUACAGUCCGACGAUCAUAUAAGAUUGAAACUGUAAAAUAUAUGCAACUGUGUGUUAUUUGUAGGAAAUGGUCACUAGAAAGAGCAAAAGAUUAUUCAGGUAUACAGGUUUUUUUUCAUUGUUUAGGAUUUUAACUCAACAGAGGAUUGAGCAUCA
B9: chr3:115809552:115809653:-|3pUTR|ENSG00000185565|unk|total|mutant (ssRNA)
RNA: GGGAGUUCUACAGUCCGACGAUCCUCCCUCACCUCUCCUCACCUCCACCCCCUCCCCAGAGCACCCGUCAUGCCGCAAAUGCCCGGAAGUGCCAUUUUCAUUUUCUCCACUGUGCGUGUGUGCUCAAGUCUUUCGCUCUCACGCAACAGAGGAUUGAGCAUCA
B10: chr20:57607060:57607300:-|CDS|ENSG00000124256|control|control|control (ssRNA)
RNA: GGGAGUUCUACAGUCCGACGAUCCCUGUGAAUGUUGAUAGUUUGACCUCCUCCCAUGAAUCACAAAUGUUCUUAACGGCAUGUAGAUUGGUGAUCUUUUCCAGAAGAUUUUCAACUUACUUUGCCCAGAUCCAUCUGAGGAAUCAACAGAGGAUUGAGCAUCA
B11: chr5:76617584:76618642:-|CDS|ENSG00000164220|control|control|control (ssRNA)
RNA: GGGAGUUCUACAGUCCGACGAUCUGAUGGCUUAUAUUUUAUAUAUCUCAUAGCUUUGUGCCUGGGUAGUCUUAAUAGUUGCUUAGAUCCAUUCCUUUAUUUUCUCAUGUCAAAAACCAGAAAUCACUCCACUGCUUACCUUACCAACAGAGGAUUGAGCAUCA
B12: chr4:86814747:86814848:+|3pUTR|ENSG00000163629|unk|total|mutant (ssRNA)
RNA: GGGAGUUCUACAGUCCGACGAUCUACUUUAACCUAUGAUAAUUAUUUACAAAAUUUUAACACUAACCAAACAAUGCAGAUCUCCGGGAUGAUUAAAGGCAGCAUUUGAUGACCGCAGACAUUGUUACAAGGACAUGGUGAGUCCAACAGAGGAUUGAGCAUCA
B13: chr20:187888:188118:-|CDS|ENSG00000185982|control|control|control (ssRNA)
RNA: GGGAGUUCUACAGUCCGACGAUCCUUCAAUAAAGUAACAGGCUAUUGCAGGAAGAAAUGCAAGGUAGGAGAAAGAUAUGAAAUAGGAUGUCUAAGUGGGAAAUUAUGUUGUGCUAAUGAUGAAGAAGAGAAAAAACAUGUGUCCAACAGAGGAUUGAGCAUCA
B14: chr10:74120044:74120145:+|3pUTR|ENSG00000035403|msi1|FALSE|unique (ssRNA)
RNA: GGGAGUUCUACAGUCCGACGAUCAAAAAAAAUCCCUGAAUGAUGAUUAGAGACAUCACCGCUAAAAAACUACAUUUAUAAGCUAGGAUUUGUUAUAUGCAAAUAUUUUCUGCCUCUUCUUUUGUUCUGUUUAAAACAAUAAAACAACAGAGGAUUGAGCAUCA
B15: chr17:3662948:3663056:-|3pUTR|ENSG00000213977|unk|total|mutant (ssRNA)
RNA: GGGAGUUCUACAGUCCGACGAUCAGUUUGAUACAAAAUGUUUUUAUCGUACUCUUUGGAGAUGCCCAUUCUACUUUUGAAUUCCGCUUUUACUAAUUCGCAUCUGGAAGCUCAGCAAGUGCACAAGCCUUACUUUGGUUACCGCAACAGAGGAUUGAGCAUCA
B16: chr17:63354981:63355093:+|CDS|ENSG00000170921|unk|FALSE|bound_elsewhere (ssRNA)
RNA: GGGAGUUCUACAGUCCGACGAUCCAGUCAAGGGUCCUAUCUAUAUCUGAAACUUACAUUUGACCUCAUAGAGAAAGGCUAUCUAGUGUUAAAGAGCUCUAGCUACAAAGUAGUUCCUGUUUCGCUCUCAGAGGUUUAUUUACUCAACAGAGGAUUGAGCAUCA
B17: ENSG00000151892:stop:overlap|stop_codon|ENSG00000151892|stop_codon|NA|stop_codon (ssRNA)
RNA: GGGAGUUCUACAGUCCGACGAUCCACUGCUGGUCCUGGUGGUAACCGCUCUGUCCACCCUAUUAUCUUUAACAGAAACAUCAUAGCUGCAUUAAAAAAAUACAAUAUGGACAUGUAAAAAGACAAAAACCAAGUUAUCUGUUUCAACAGAGGAUUGAGCAUCA
B18: ENSG00000107863:be:win_5551|CDS|ENSG00000107863|bound_else_gene|NA|bound_elsewhere_windowed (ssRNA)
RNA: GGGAGUUCUACAGUCCGACGAUCGACUGGCUGGCCAGGGAACGCCUACGCACCAGUACCUCUGACCUUAGCAGAGGAGAAAUCGGAGAUCCCCAGACAGAGAACCCAAGCACACGAGAAAUAGCCACGACCGACACACCUUUGCAACAGAGGAUUGAGCAUCA
B19: chr4:86814747:86814848:+|3pUTR|ENSG00000163629|unk|FALSE|unique (ssRNA)
RNA: B12 RNA with C83U, C84A, C112U, C113A
B20: ENSG00000181035:stop:overlap|stop_codon|ENSG00000181035|stop_codon|NA|stop_codon (ssRNA)
RNA: GGGAGUUCUACAGUCCGACGAUCUGGGCAUCAGCUUCACCACCUUCGACCUCAUGCAGAUCCUGCUGCGGCACCUGCAGAGCUAGGGGACCCUGAGCUGCUCUCAGGACGGUGGACCGGUGACCCCUUUGUAUUCUGGGCCCACAACAGAGGAUUGAGCAUCA
B21: ENSG00000104805:stop:overlap|stop_codon|ENSG00000104805|stop_codon|NA|stop_codon (ssRNA)
RNA: GGGAGUUCUACAGUCCGACGAUCAGUUGAAGGAGGUGUGGGAGGAGCUGGAUGGACUGGACCCCAACAGCAUCCCAAAGUGCUAGGAUUACAGGCGUGAGUCACUGCGCCCGGCCUCGAAAGCCCUUUCUCUAUGGUGGAUCACAACAGAGGAUUGAGCAUCA
B22: ENSG00000198589:be:win_3201|CDS|ENSG00000198589|bound_else_gene|NA|bound_elsewhere_windowed (ssRNA)
RNA: GGGAGUUCUACAGUCCGACGAUCAACUGGCAAAGAUUCAAUGACUGUCAGUGAAGUAACUGCUUCUAUAAGUUCUCCUUCAGAAGAGGAUGCCUCAGAGAUGCCAGAAUUCUUGGAUAAAUCUAUAGUAGAGGAAGAGGAAGACAACAGAGGAUUGAGCAUCA

These binders were tested against T1, UNK ZnF1-6 (called full-length) (human, UniProt Q9C0B0 30-357) (assay: nsRBNS (natural sequence RNA bind-n-seq); RBNS binding buffer (assumed for nsRBNS): 25 mM Tris pH 7.5, 150 mM KCl, 3 mM MgCl2, 0.01% Triton X-100, 500 ug/ml BSA, 20 U/ml SUPERase-In, 4 C; UNK is unkempt and MSI1 is Musashi-1; names of the RNAs are library labels; protein concentration not given here; high values mean tight binding).
T1 sequence: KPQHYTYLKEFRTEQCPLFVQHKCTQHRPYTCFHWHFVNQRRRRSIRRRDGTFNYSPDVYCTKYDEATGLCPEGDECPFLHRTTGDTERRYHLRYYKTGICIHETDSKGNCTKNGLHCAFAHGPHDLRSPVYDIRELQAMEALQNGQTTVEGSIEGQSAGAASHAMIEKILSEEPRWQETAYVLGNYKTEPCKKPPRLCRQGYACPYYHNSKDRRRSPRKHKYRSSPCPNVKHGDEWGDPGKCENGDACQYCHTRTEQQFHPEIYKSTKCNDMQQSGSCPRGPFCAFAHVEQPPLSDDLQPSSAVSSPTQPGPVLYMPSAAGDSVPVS
For B1, the binding signal was 0.956 enrichment R. For B2, the binding signal was 0.51 enrichment R. Binder B3 has a binding signal of 3.22 enrichment R. B4 showed a binding signal of 1.15 enrichment R. B5 showed a binding signal of 0.394 enrichment R. B6 was tested, and the binding signal was 2.09 enrichment R. For B7, the binding signal was 2.32 enrichment R. B8 gave a binding signal of 3.36 enrichment R. In the case of B9, the binding signal is reported as 1.88 enrichment R. B10 showed a binding signal of 0.274 enrichment R. B11 showed a binding signal of 4.63 enrichment R. Binder B12 has a binding signal of 5.91 enrichment R. In the case of B13, the binding signal is reported as 0.651 enrichment R. Work on B14 yielded a binding signal of 1.24 enrichment R. B15 showed a binding signal of 0.437 enrichment R. B16 gave a binding signal of 0.385 enrichment R. In the case of B17, the binding signal is reported as 0.417 enrichment R. B18 gave a binding signal of 0.902 enrichment R. B19 gave a binding signal of 4.37 enrichment R. B20 showed a binding signal of 1.2 enrichment R. B21 gave a binding signal of 0.682 enrichment R. Binder B22 has a binding signal of 0.614 enrichment R.
